Measured values reported in PMC10726135.
The other results are listed elsewhere or left out. At the low end of the ranking, values are background and their order means little. Measured with an extract: partners may take part in the binding.

Biological target: T1, HNF4alpha2 (COS-7 nuclear extract) (UniProt P41235)
T1 sequence: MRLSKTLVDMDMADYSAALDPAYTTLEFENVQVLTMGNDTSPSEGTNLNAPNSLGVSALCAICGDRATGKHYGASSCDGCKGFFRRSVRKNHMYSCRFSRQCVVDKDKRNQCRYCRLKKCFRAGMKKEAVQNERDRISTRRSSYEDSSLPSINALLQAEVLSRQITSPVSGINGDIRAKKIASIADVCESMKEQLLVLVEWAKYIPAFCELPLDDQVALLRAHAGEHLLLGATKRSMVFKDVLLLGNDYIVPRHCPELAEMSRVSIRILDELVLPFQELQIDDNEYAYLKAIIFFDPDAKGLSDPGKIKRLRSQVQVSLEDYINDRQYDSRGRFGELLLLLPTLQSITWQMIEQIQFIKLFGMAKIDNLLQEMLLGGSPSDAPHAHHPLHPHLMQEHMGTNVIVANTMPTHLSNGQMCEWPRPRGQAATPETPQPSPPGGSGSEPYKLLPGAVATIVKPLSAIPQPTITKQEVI
Assay: protein-binding microarray
Details: COS-7 nuclear extract on double-stranded Agilent 4x180k PBM; binding buffer, salt, pH and temperature not given; high values mean tight binding; double strand, one strand shown; sequences stand for … in …GCCTAGGGAGATTAGAGTATCGGTCGA

Row | Sequence | binding signal (log2 normalized intensity)
1 | ACCTCTTATCAAGCGTGCACCCCAGGTACG | 1.17
2 | TAGGAATCTTCAAGGCCTACCTTGGGTTCT | 1.07
3 | GTCCTATGACCCTGCCAAATCCCCCTCTGC | 4.58
4 | CCCTCTGATATTGGGTGAGTGTTAGAGCAC | 0.74
5 | ATAGCATGCCACGATGATTAGCTGACTTTA | -1.08
6 | TGCTCAGGGAGAAGCAAATATGTGTCCTCT | 0.314
7 | TGGCTTTTGCCCTCAAGGAGTTTTAGATTA | 1.21
8 | TAGGCATGCAAACTTTGTTTAATGATTGCA | -0.637
9 | TCACCTCGCTCCCCTCCTGTCAGTTTATTT | 2.2
10 | TGCTCTTTATCAGCACCAAGAACAAACAAA | -1.26
11 | CTGTGAATTCTTAAGCCAAAGTCCAAGTTG | 3.94
12 | TTGTACAAAGGTCCTGTGGGGCCCAGAGCC | -0.258
13 | GCCGGAAAAAGTGAGGAGCAGCAGAGAGTC | -1.24
14 | CACACCTGGCTATTCAGTTTTTATTTTGTA | 0.589
15 | CTTAGGCTTTTGCACTTTACTCAGAAAGGT | 2.52
16 | AGTCATCCATCATTCATACATTTGCCTGAA | 0.634
17 | CAAAGGACAGCAGTAGAAAACAGAGAAGCC | -1.21
18 | TAGCCCTGCAGTGTATGACACAGCCACAAA | -1.17
19 | GTGCTTAGTATGTGCTAGGCATTTTATAGT | 1.09
20 | TAGCTTTAAAGACCAAAGATCACAGTGAAG | 2.11
21 | AGTTCCAGAAGACTACAAATTCCTCAATCC | -1.1
22 | GTTAACCTCCTATGATCTTTCATTCCTATT | -1.22
23 | AATGCTGGAGTTAAAGCTTTGAGGAACTAG | -1.19
24 | TACTTATGGTTTGACCCTGCGATAAGTAGA | 1.91
25 | ATGACCTCTGCACCCTTCCCTGAGTTTCCA | 2.73

Row | Sequence | binding signal (log2 normalized intensity)
26 | GAGGGTAGAGGAGCCAGAGGGGCCAGGAAC | -1.19
27 | CTGATTTAGCTATTTGACCTTCGGCCTCAA | 8.16
28 | AAAAGAGTTGCTCAAACCAACATTATTAGC | -1.15
29 | GAGTCTGTTGCAAGCAATGGAGAGGATTTT | 0.418
30 | TGGAACCTGTCTGACAGGATGAATTTATTG | 0.0101
31 | AGGATGTGTGCTCGAGGTGGACTTTCCCCC | 6.07
32 | AACTCAGTGAGGGCTATTGACAAAGACCAG | -1.08
33 | AAAGGAAGGAATTTACTGCAGTCAGGGGTT | -0.248
34 | GATAAGAATTTTGTGCAATTACACAACTTC | -0.884
35 | TATTTTCTTATCTGCCTAGGCATTTGGCTG | -1.06
36 | GTTGACATTTGAACCCAACCGTCCAGAGTC | 2.44
37 | CCTCTAGATAAACCAAGCCTGCAGCACCTT | -1.05
38 | GGAGAGGGAGAGTGAGTGAGTGTGTGTGTG | 2.52
39 | TGAATAGGTCTTGGAATGTGACGGCAGGTC | 1.28
40 | AAGATAAGATGTACCATTCATGGACAGCCT | -1.02
41 | GCACACTGGCAAATGTGAATGGACTCTGCC | 3.28
42 | AGATAATGCCAGAAAGGTCTAAAAGTAGCT | -1.29
43 | TTGCACTGCTCAGGGTGGGGTCTCGCTGCT | -0.755
44 | TGGCTTCCGTGCCTGCATGGGCTGTCACCT | -1.18
45 | GAGAAACGCACTCGCCTCTCCTGTTCCGGT | -0.892
46 | GTGGAAAGACAAGTTGAAGCCAGATTGTCA | -1.02
47 | CGTCCGTGCACCCTTCCTCTGCAGCCGCCC | -1.05
48 | CGATAATTACCTGGTCAGAAGAAACATGCG | -0.0791
49 | CTGATTTCAAAGTTCAGTTTGATTACTTGG | 2.12
50 | ATGCCAGTGGGAAAACAAACTTTCCTCTCT | -1.02

Row | Sequence | binding signal (log2 normalized intensity)
51 | ACAGGCCTCCCCCCTTCTGTTTCCAGAAAT | 3.71
52 | CCCAACCCTCTCCCACTCCCCTCCTCCAGA | 5.01
53 | TGCACCCCCTTCCCACCTGCTGTCCAACCT | 4.48
54 | GGGTGGTGAAATGGGGGAAGGGCTGGAGAC | -1.18
55 | TTACTTGCTGGAGAAAGAGGGGAAGGATGA | -1.06
56 | TAAGTGAAAGTACACAGTGCCTGCTTGCAG | -1.12
57 | TAGAAAGTCAGTGAAGGAGCTGACTAGATT | -1.11
58 | TAGAAAGGAGTACACACCATAAGAGGCTCT | -1.12
59 | GAAGGTCGAGGCCAGGGATTAAAGAATTCG | -1.21
60 | CTCTTTTACTGTACTTCTTTAGGACTGCTC | 1.58
61 | TACACCCCTCACTCCCTCCAGCTGTCTTGG | 3.14
62 | TCAAAGGGCATTACTTGCTGGAGAAAGAGG | -0.762
63 | ATCCCGTGGACTTTGCCTGCCCATCCCGTG | 3.13
64 | TATCTCTGTGGATAGCTCAGGGATTAACGA | 0.373
65 | GCACTGATAAGCGTATTTCAACCTTTGATC | 7.8
66 | ATGATAAGTTGGAATTTGGGTGATCCTGGT | 1.69
67 | TGCTGCAATTTAAGCTTACTTCCTCTCCTA | -1.17
68 | CTTTGGCCTTTTGTGAGATATGGACTGTAG | 2.72
69 | GACCTCACATTGTAGCTAAAATGTTAATGA | 0.663
70 | CTGCCACTTATTGTGTTATGTACTTAGTGT | 2.59
71 | GAAATGTAGTTCCGGAGAACACGGAGTCCT | -0.635
72 | TTCCATGTCCAAAGGTCTTCATGAGCAATA | 2.9
73 | CTGTGACACCCTGGTTGACACTCGAGGATC | -0.57
74 | CTTGGATTTTCTCATCCCAGGGATAATGAT | 0.183
75 | GCACAGCTTATCACTGGTGATGTGAACCTC | 2.27

Row | Sequence | binding signal (log2 normalized intensity)
76 | AACCACCAGATAGAGCTTTTGAGGGTGACC | 1.87
77 | TCAAAGCCCAACCAGGATAGGGAGGGGTAA | -1.01
78 | TTAGCCTTTGAACCCCACACCTCCCTTGCA | 3.9
79 | CGGTTCCCAATAAGTTCCTCATTTTCATGT | 0.676
80 | GCCTGAGCTATCTGTTTGAGGTTCACTGGG | 1.55
81 | TTCCTTTTTTGGTTCCCCTTCCCCCAACAG | 4.87
82 | TGTGGGCAAATAGGATTAGGAAACCTGGTA | -1.09
83 | GCCTTGCACACTCGCCTGGCTCCCCACGTG | -1.13
84 | GAAGCTTAGAGAGAGAAATTGCTTAAGTGC | -1.25
85 | ATGATTATGCCTCTGTGACCTATAATCAGA | 2.56
86 | GGAAAGGGCACTGATAACCTGCATTTGAAA | -1.23
87 | GCTTGTCCTTTTGACCACAGTTATCTCCCC | 2.78
88 | TCTAGCATCCCTCTCTTGCTGGGCCCCCAG | 2.43
89 | ATTGCCTTTCTCTGTGTGTATGTGTGTGTA | 3.27
90 | TGCATCGCAGTCGCCTGCAAGACAATACCT | -1.16
91 | ACTCCTGTGCTGGAATGCTTTTCTAGAACC | 0.157
92 | TCCAGAATTGTGTGGTTATCTGTTGGGGAA | 1.95
93 | AGGAGGGAGGCAGGGAGACAACCTGGGTGT | -1.15
94 | ATTTGTCTCTGCTGGGCAGAGGGACAACTG | 0.928
95 | GATTTGACTGGAATGTCAAAGGGACAGCAC | 0.572
96 | CCCAGCTGAGATTCAGAATAGTTAAGTAAC | -1.06
97 | TGATTTAATACGATATTAATGGTGACCCCT | 5.54
98 | CTGGTGTGCTTTCTGTCCTCTCAAAGTCCA | 3.7
99 | GAGGTGGGCCCAGGGTTCTCTGTGACCTTT | 6.79
100 | GTCAGCTTCACTGATAGCGAGTTATCTGCA | -0.993

Row | Sequence | binding signal (log2 normalized intensity)
101 | AACACTGACAGATTCCTGCTAACAGATAAA | -0.969
102 | GAAGGCCCCCAGGTAGCTGCCAATGCAAAT | 1.89
103 | TGGTGGGGAATGCTAGGACTCATTCTCCCC | 0.442
104 | GGTAAGGGTGGGGGTGGGGAGGATAGCAGC | -0.961
105 | TGCCACATACCTTTAAACATTCTTCTCAGT | 0.734
106 | CAAATAGCAGAAAATCCAGGTGCAGTGTGA | 1.06
107 | CCAGACAGAGAGGTCAGCAAATGTGGACAC | 0.904
108 | TTTGAACTGGGTCTTAATAAGATAATAAGT | 1.44
109 | GGCACAGTAACCTGACCCCCAGTGGAATGT | 3.32
110 | CGCTGCGCCACAGCACCACCTGCTGGTCAG | -1.09
111 | GCCTCCTGCTCTGGGCTTTCTCTGCCTCCA | -1.08
112 | CTATGCAAACAGCGCTTATCTGGAAACTAT | -1.02
113 | TTGACCTCTGCTAGGTTTGGGTAAGACTTA | 2.52
114 | AAAAATTGCCCCCGGGCACAGGGTTGAGTG | 2.2
115 | ACCTCCCCTTTGTTTAACTTACTATCTGAG | 1.18
116 | GTTCTAGTAAGGCCTTCAAATGATTGGATG | 0.0454
117 | GTCTACAGGTCAGACCTGTTTCAAAACTAC | -1.03
118 | ACACTATCAGCTACTTCGGGACAAGAGGAA | -0.41
119 | AGGCCAATTACTTACATGGGTTAGGAGGAT | 0.353
120 | CTTGTCTTATCAGCAGGGTCTTTTTGACCT | 4.38
121 | AAGGAAATGGACAACGGAAAGACAGAGGTG | -1.03
122 | TCTCTGGCTGGTGGGCAAGTTATCTCGGGG | 0.776
123 | TGAATCTAATGCCACCATTGATCTAACAGG | -1.09
124 | AGCCTCTTTATCTCTCTCTCTTTCTTCCCC | 2.84
125 | AATCAACTGCCCTCTGCCTTTCAGGCAGGA | -1.19

Row | Sequence | binding signal (log2 normalized intensity)
126 | GCAATCTTCCAGTCCACAGTCCAGTGACTA | 0.476
127 | AATGGTCATTCTCTGTTGCATGGTTGACAT | 1.89
128 | AGAGAGACCGTCCCTGGGTACAACTTTATC | 0.802
129 | CAGGGAGTGCCCTTCCACTTAGGCTTGCAA | -1.1
130 | CAAAGTGCATTGGAGGCCAGATGCCAACTG | -1.15
131 | GCAAGGATCAGCCCCACACTCCTGGGCTGT | -1.16
132 | AGGAGCCTCCAATCAGGACAGACTGGTTGA | -1.15
133 | CAAGGGGAATGTGGATGCTGGAATGAGGGA | -1.09
134 | CAGAAACAAAGGGGGAGGGAGATAGAGAAA | -1.08
135 | CCAGTGACTATCTGCTACTTAAGATAGAGG | -0.542
136 | TAAGATCCAAAGGAGTGGTCCTGCTCAAAG | -1.03
137 | CATGATTGTGGAGGATGGGAAGTCCAAAGT | 3.32
138 | TTGTATAGCATGAACTACACAGATTCTGCA | -1.07
139 | GTGGTGTAGAGGCCCTGCAGGGCCCCACAT | -0.915
140 | TTACACCTGTGTGTACTGGGCAGATAACAG | 0.585
141 | AACTGACCTTGCAGGCCAGGGAGTGCAGCT | -0.889
142 | ACTGAAAGAACACAGCGCAGCACACTGCAG | -1.11
143 | ACATTTCCTTTTTGGCCAGCCCCGGGAATT | 1.65
144 | AAATAGAGCAGCCTGGGGTAAAACCAAACT | -1.12
145 | GATGGGTCCACACAGCTGAATCCAAAGGTC | 5.87
